# Source: the supplement of paper PMC8728848
# This is one part of the list.
# B1: rCnSL-A (Clitocybe nebularis) (protein)
# chain: VNPNLPGPNDVFVGFRGTNNIVGAIYEKDGIKDTPLNNGADAEMGPGSYITDGLFTARIFASGSAGNNPGTTATVCKIYASGVQWRGAPKGYIPVAYFGNGPTAEQRRQTYLRTLGLPGTAIRFGNLNTNPGQGPTAPRQMVVPPGPLRSLLKASCFPAADTRLPQTLHYFEKRVDWNIITAADSQTWGH
# Key:
# Assay in all cases: glycan array binding signal (z-score within array); higher = stronger binding
# Details in all cases: glycan notation: IUPAC condensed, linker removed
# [1] = molecular target: Fuc(a1-2)Gal(b1-4)GlcNAc(b1-3)Gal(b1-4)GlcNAc(b1-3)Gal(b1-4)GlcNAc
# In short: (§1)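 The binding signal is a Z-score computed within each array and averaged over linkers. Arrays of the same protein sequence at different concentrations or buffers were also averaged together. Data originate from 3228 arrays in the Consortium for Functional Glycomics database, kept only where the protein sequence was available.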
# [2] = molecular target: Fuc(a1-2)Gal(b1-4)GlcNAc(b1-3)GalNAc
# In short: as §1
# [3] = molecular target: Fuc(a1-2)Gal(b1-4)GlcNAc(b1-3)[Fuc(a1-2)Gal(b1-4)GlcNAc(b1-6)]GalNAc
# In short: as §1
# [4] = molecular target: Fuc(a1-2)Gal(b1-4)GlcNAc(b1-3)[Fuc(a1-3)[Gal(b1-4)]GlcNAc(b1-6)]Gal(b1-4)Glc
# In short: as §1
# [5] = molecular target: Fuc(a1-2)Gal(b1-4)GlcNAc(b1-6)GalNAc
# In short: as §1
# [6] = molecular target: Fuc(a1-2)Gal(b1-4)GlcNAc6S
# In short: as §1
# [7] = molecular target: Fuc(a1-2)Gal(b1-4)[Fuc(a1-3)]GlcNAc
# In short: as §1
# [8] = molecular target: Fuc(a1-2)Gal(b1-4)[Fuc(a1-3)]GlcNAc(b1-2)Man(a1-3)[Fuc(a1-2)Gal(b1-4)[Fuc(a1-3)]GlcNAc(b1-2)Man(a1-6)]Man(b1-4)GlcNAc(b1-4)[Fuc(a1-6)]GlcNAc
# In short: as §1
# [9] = molecular target: Fuc(a1-2)Gal(b1-4)[Fuc(a1-3)]GlcNAc(b1-2)[Fuc(a1-2)Gal(b1-4)[Fuc(a1-3)]GlcNAc(b1-4)]Man(a1-3)[Fuc(a1-2)Gal(b1-4)[Fuc(a1-3)]GlcNAc(b1-2)Man(a1-6)]Man(b1-4)GlcNAc(b1-4)GlcNAc
# In short: as §1
# [10] = molecular target: Fuc(a1-2)Gal(b1-4)[Fuc(a1-3)]GlcNAc(b1-3)Gal(b1-4)[Fuc(a1-3)]GlcNAc
# In short: as §1
# [11] = molecular target: Fuc(a1-2)Gal(b1-4)[Fuc(a1-3)]GlcNAc(b1-3)Gal(b1-4)[Fuc(a1-3)]GlcNAc(b1-3)Gal(b1-4)[Fuc(a1-3)]GlcNAc
# In short: as §1
# [12] = molecular target: Fuc(a1-2)Gal(b1-4)[Fuc(a1-3)]GlcNAc(b1-3)GalNAc
# In short: as §1
# [13] = molecular target: Fuc(a1-2)Gal(b1-4)[Fuc(a1-3)]GlcNAc(b1-3)[Neu5Ac(a2-6)Gal(b1-4)GlcNAc(b1-6)]Gal(b1-4)Glc
# In short: as §1
# [14] = molecular target: Fuc(a1-2)Gal3S(b1-4)GlcNAc
# In short: as §1
# [15] = molecular target: Fuc(a1-2)Gal6S(b1-3)GlcNAc
# In short: as §1
# [16] = molecular target: Fuc(a1-2)Gal6S(b1-3)GlcNAc6S
# In short: as §1
# Fuc(a1-2)Gal6S(b1-4)Glc = molecular target: Fuc(a1-2)Gal6S(b1-4)Glc
# In short: as §1
# [17] = molecular target: Fuc(a1-2)Gal6S(b1-4)Glc6S
# In short: as §1
# Fuc(a1-2)[Gal(a1-3)]Gal = molecular target: Fuc(a1-2)[Gal(a1-3)]Gal
# In short: as §1
# [18] = molecular target: Fuc(a1-2)[Gal(a1-3)]Gal(b1-3)GalNAc
# In short: as §1
# [19] = molecular target: Fuc(a1-2)[Gal(a1-3)]Gal(b1-3)GalNAc(b1-3)Gal(a1-4)Gal(b1-4)Glc
# In short: as §1
# [20] = molecular target: Fuc(a1-2)[Gal(a1-3)]Gal(b1-3)GlcNAc
# In short: as §1
# [21] = molecular target: Fuc(a1-2)[Gal(a1-3)]Gal(b1-3)GlcNAc(b1-2)Man(a1-3)[Fuc(a1-2)[Gal(a1-3)]Gal(b1-3)GlcNAc(b1-2)Man(a1-6)]Man(b1-4)GlcNAc(b1-4)GlcNAc
# In short: as §1
# [22] = molecular target: Fuc(a1-2)[Gal(a1-3)]Gal(b1-3)GlcNAc(b1-2)Man(a1-3)[Fuc(a1-2)[Gal(a1-3)]Gal(b1-3)GlcNAc(b1-2)Man(a1-6)]Man(b1-4)GlcNAc(b1-4)[Fuc(a1-6)]GlcNAc
# In short: as §1
# [23] = molecular target: Fuc(a1-2)[Gal(a1-3)]Gal(b1-3)GlcNAc(b1-3)GalNAc
# In short: as §1
# [24] = molecular target: Fuc(a1-2)[Gal(a1-3)]Gal(b1-3)GlcNAc(b1-6)GalNAc
# In short: as §1
# [25] = molecular target: Fuc(a1-2)[Gal(a1-3)]Gal(b1-4)Glc
# In short: as §1
# [26] = molecular target: Fuc(a1-2)[Gal(a1-3)]Gal(b1-4)GlcNAc
# In short: as §1
# [27] = molecular target: Fuc(a1-2)[Gal(a1-3)]Gal(b1-4)GlcNAc(b1-2)Man
# In short: as §1
# [28] = molecular target: Fuc(a1-2)[Gal(a1-3)]Gal(b1-4)GlcNAc(b1-2)Man(a1-3)[Fuc(a1-2)[Gal(a1-3)]Gal(b1-4)GlcNAc(b1-2)Man(a1-6)]Man(b1-4)GlcNAc(b1-4)GlcNAc
# In short: as §1
# [29] = molecular target: Fuc(a1-2)[Gal(a1-3)]Gal(b1-4)GlcNAc(b1-2)Man(a1-3)[Fuc(a1-2)[Gal(a1-3)]Gal(b1-4)GlcNAc(b1-2)Man(a1-6)]Man(b1-4)GlcNAc(b1-4)[Fuc(a1-6)]GlcNAc
# In short: as §1
# [30] = molecular target: Fuc(a1-2)[Gal(a1-3)]Gal(b1-4)GlcNAc(b1-3)GalNAc
# In short: as §1
# [31] = molecular target: Fuc(a1-2)[Gal(a1-3)]Gal(b1-4)GlcNAc(b1-3)[Fuc(a1-2)[Gal(a1-3)]Gal(b1-4)GlcNAc(b1-6)]GalNAc
# In short: as §1
# [32] = molecular target: Fuc(a1-2)[Gal(a1-3)]Gal(b1-4)GlcNAc(b1-6)GalNAc
# In short: as §1
# [33] = molecular target: Fuc(a1-2)[Gal(a1-3)]Gal(b1-4)[Fuc(a1-3)]Glc
# In short: as §1
# [34] = molecular target: Fuc(a1-2)[Gal(a1-3)]Gal(b1-4)[Fuc(a1-3)]GlcNAc
# In short: as §1
# [35] = molecular target: Fuc(a1-2)[Gal(a1-3)]Gal(b1-4)[Fuc(a1-3)]GlcNAc(b1-3)GalNAc
# In short: as §1
# [36] = molecular target: Fuc(a1-2)[Gal(a1-4)]Gal(b1-4)GlcNAc
# In short: as §1
# [37] = molecular target: Fuc(a1-2)[GalNAc(a1-3)]Gal
# In short: as §1
# [38] = molecular target: Fuc(a1-2)[GalNAc(a1-3)]Gal(b1-3)GalNAc(a1-3)[Fuc(a1-2)]Gal(b1-4)GlcNAc
# In short: as §1
# [39] = molecular target: Fuc(a1-2)[GalNAc(a1-3)]Gal(b1-3)GalNAc(b1-3)Gal(a1-4)Gal(b1-4)Glc
# In short: as §1
# [40] = molecular target: Fuc(a1-2)[GalNAc(a1-3)]Gal(b1-3)GlcNAc
# In short: as §1
# [41] = molecular target: Fuc(a1-2)[GalNAc(a1-3)]Gal(b1-3)GlcNAc(b1-2)Man(a1-3)[Fuc(a1-2)[GalNAc(a1-3)]Gal(b1-3)GlcNAc(b1-2)Man(a1-6)]Man(b1-4)GlcNAc(b1-4)GlcNAc
# In short: as §1
# [42] = molecular target: Fuc(a1-2)[GalNAc(a1-3)]Gal(b1-3)GlcNAc(b1-2)Man(a1-3)[Fuc(a1-2)[GalNAc(a1-3)]Gal(b1-3)GlcNAc(b1-2)Man(a1-6)]Man(b1-4)GlcNAc(b1-4)[Fuc(a1-6)]GlcNAc
# In short: as §1
# [43] = molecular target: Fuc(a1-2)[GalNAc(a1-3)]Gal(b1-3)GlcNAc(b1-3)GalNAc
# In short: as §1
binder,measurement,setting,value
B1,glycan array binding signal (z-score),[1],-0.195
same,glycan array binding signal (z-score),[2],-0.207
same,glycan array binding signal (z-score),[3],-0.154
same,glycan array binding signal (z-score),[4],-0.295
same,glycan array binding signal (z-score),[5],-0.157
same,glycan array binding signal (z-score),[6],-0.251
same,glycan array binding signal (z-score),[7],-0.165
same,glycan array binding signal (z-score),[8],0.126
same,glycan array binding signal (z-score),[9],0.039
same,glycan array binding signal (z-score),[10],-0.285
same,glycan array binding signal (z-score),[11],-0.017
same,glycan array binding signal (z-score),[12],-0.01
same,glycan array binding signal (z-score),[13],-0.246
same,glycan array binding signal (z-score),[14],-0.22
same,glycan array binding signal (z-score),[15],-0.243
same,glycan array binding signal (z-score),[16],-0.048
same,glycan array binding signal (z-score),Fuc(a1-2)Gal6S(b1-4)Glc,-0.263
same,glycan array binding signal (z-score),[17],-0.179
same,glycan array binding signal (z-score),Fuc(a1-2)[Gal(a1-3)]Gal,-0.197
same,glycan array binding signal (z-score),[18],-0.193
same,glycan array binding signal (z-score),[19],-0.24
same,glycan array binding signal (z-score),[20],-0.141
same,glycan array binding signal (z-score),[21],-0.149
same,glycan array binding signal (z-score),[22],-0.018
same,glycan array binding signal (z-score),[23],-0.101
same,glycan array binding signal (z-score),[24],-0.234
same,glycan array binding signal (z-score),[25],-0.09
same,glycan array binding signal (z-score),[26],-0.235
same,glycan array binding signal (z-score),[27],-0.226
same,glycan array binding signal (z-score),[28],-0.265
same,glycan array binding signal (z-score),[29],0.054
same,glycan array binding signal (z-score),[30],-0.235
same,glycan array binding signal (z-score),[31],-0.176
same,glycan array binding signal (z-score),[32],-0.178
same,glycan array binding signal (z-score),[33],-0.235
same,glycan array binding signal (z-score),[34],-0.091
same,glycan array binding signal (z-score),[35],-0.339
same,glycan array binding signal (z-score),[36],-0.173
same,glycan array binding signal (z-score),[37],-0.204
same,glycan array binding signal (z-score),[38],-0.25
same,glycan array binding signal (z-score),[39],-0.288
same,glycan array binding signal (z-score),[40],-0.222
same,glycan array binding signal (z-score),[41],-0.298
same,glycan array binding signal (z-score),[42],0.526
same,glycan array binding signal (z-score),[43],-0.155
